The whole screen tested about 310,000 compounds, of which about 14,000 (4.5%) showed an effect of 50% or more. The effect is printed as a negative number. This is one part of the list.
target: human ether-à-go-go-related gene (hERG) potassium channel (human, UniProt Q12809); assay: primary screen, population patch clamp on CHO cells stably expressing hERG
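Note: peak tail current of the secondary pulse compared with the same well before compound.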

Sequence of human ether-à-go-go-related gene (hERG) potassium channel (Q12809 whole entry, looked up): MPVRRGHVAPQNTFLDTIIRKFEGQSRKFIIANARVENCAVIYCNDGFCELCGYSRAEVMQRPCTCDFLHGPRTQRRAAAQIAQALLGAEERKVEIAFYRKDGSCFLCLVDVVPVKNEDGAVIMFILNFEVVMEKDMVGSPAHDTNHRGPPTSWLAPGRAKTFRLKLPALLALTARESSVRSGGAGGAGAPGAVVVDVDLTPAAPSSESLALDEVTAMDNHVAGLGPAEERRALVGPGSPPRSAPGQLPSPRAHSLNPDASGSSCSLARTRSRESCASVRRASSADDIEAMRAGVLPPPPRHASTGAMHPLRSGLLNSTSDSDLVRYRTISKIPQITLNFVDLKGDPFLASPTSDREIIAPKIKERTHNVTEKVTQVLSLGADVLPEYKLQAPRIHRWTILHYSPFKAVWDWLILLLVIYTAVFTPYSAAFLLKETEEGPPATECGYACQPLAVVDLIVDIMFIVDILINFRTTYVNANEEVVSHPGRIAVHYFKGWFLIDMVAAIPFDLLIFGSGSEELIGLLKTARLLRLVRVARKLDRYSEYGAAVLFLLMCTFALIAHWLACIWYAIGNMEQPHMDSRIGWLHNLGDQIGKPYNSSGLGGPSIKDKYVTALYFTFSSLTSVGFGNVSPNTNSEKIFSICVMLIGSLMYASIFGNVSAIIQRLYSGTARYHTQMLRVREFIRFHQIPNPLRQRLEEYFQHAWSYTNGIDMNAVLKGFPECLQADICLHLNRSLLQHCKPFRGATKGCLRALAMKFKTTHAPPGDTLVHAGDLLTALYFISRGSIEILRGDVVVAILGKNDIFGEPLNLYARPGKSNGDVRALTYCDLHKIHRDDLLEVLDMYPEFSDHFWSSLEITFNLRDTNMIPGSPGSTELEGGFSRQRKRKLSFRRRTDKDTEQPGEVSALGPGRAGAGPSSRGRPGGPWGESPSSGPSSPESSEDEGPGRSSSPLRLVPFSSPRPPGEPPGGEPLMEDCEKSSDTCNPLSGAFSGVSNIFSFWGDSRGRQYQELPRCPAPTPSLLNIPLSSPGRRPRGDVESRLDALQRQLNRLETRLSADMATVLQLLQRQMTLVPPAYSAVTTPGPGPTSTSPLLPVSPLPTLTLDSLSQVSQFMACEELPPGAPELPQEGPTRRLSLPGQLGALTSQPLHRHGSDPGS

Structure (SMILES) | hERG current change (%, negative = inhibition) at 10uM [%]
C=CCSC1=C(C#N)C2(CCCCC2)C(C#N)C(=O)N1 (stereo not drawn) | -3.87
O=C1C=C(c2ccc(O)cc2)C[C@@H](c2ccc3c(c2)OCO3)C1 | -0.255
O=C(CN(c1ccc(F)cc1)S(=O)(=O)c1ccc2c(c1)OCCO2)NCc1cccnc1 | -12.9
Cc1c(NC(=O)CCCOc2ccccc2)cccc1[N+](=O)[O-] | -1.48
CN(C)S(=O)(=O)c1ccc(Cl)c(NC(=O)COC(=O)/C=C/c2cnc3ccccc3n2)c1 | -9.71
CCCCOC(=O)c1[nH]c2c(c1C)C(=O)CC(c1cc(OC)c(OC)c(OC)c1)C2 (stereo not drawn) | 10.8
COc1ccc(-c2nn(C)c(=O)c3ccccc23)cc1CNC(=O)C1CCCCC1 | -56.3
COc1ccc(NC(=O)C2CCCN(S(=O)(=O)c3ccc4[nH]c(=O)ccc4c3)C2)cc1 (stereo not drawn) | 9.08
NCCCC[C@H]1NC(=O)[C@H](CCC(=O)O)NC(=O)c2cc([N+](=O)[O-])cc(I)c2OCC[C@@H](C(N)=O)NC1=O | 26.6
CCOc1ccc(C(=O)Cn2cnc3ccccc3c2=O)cc1 | -15.9
O=c1c2c(-c3cccs3)csc2ncn1-c1ccccc1 | -28.3
Cc1cccc(C)c1NC(=S)N1CC(C)OC(C)C1 (stereo not drawn) | 5.1
COc1cccc(C2C(C(=O)c3ccc(C)o3)=C(O)C(=O)N2CCN2CCOCC2)c1 (stereo not drawn) | 32.1
C[C@@H]1C[C@@H]([C@H](O)CC2CC(=O)NC(=O)C2)C(=O)[C@@H](C)C1 | 15.3
Cc1ccc(-n2c(-c3ccccc3)n[nH]c2=S)cc1 | 15.6
Cc1cc(C)cc(Oc2ccc(-c3nnc(-c4ccccc4)o3)cc2[N+](=O)[O-])c1 | 7.94
O=C1N[C@@H](Cc2ccccc2)C(=O)N2[C@@H]3N(S(=O)(=O)c4ccc(F)cc4)c4ccccc4[C@]3(Br)C[C@@H]12 | -14.3
Cc1sc2ncn(C(C)C(=O)OC3CCCCC3)c(=O)c2c1C (stereo not drawn) | -18.6
O=C(Nn1cnc2ccccc2c1=O)c1ccccc1[N+](=O)[O-] | 15
CCc1ccc(-c2cc3c(=O)n(CC(=O)N4CCCC4)nc(C)n3n2)cc1 | 4.81
Clc1ccc(C2=Nc3cc(Cl)ccc3OC2)cc1 | 25.9
O=S(=O)(CCSc1nc2ccccc2o1)Cc1ccccc1 | -0.259
O=C(O)c1nccnc1C(=O)NCCc1c[nH]c2ccccc12 | -4.91
COc1ccccc1CC(=O)Nc1cccc(F)c1 | 12.2
CCC(=O)c1cn(CC(=O)Nc2ccccc2Cl)c2ccccc12 | 21.1
COCC(=O)Nc1cc(C(=O)Nc2ccccc2C)ccc1Cl | -3.92
CCOc1ccc(CN(C)C(=O)CNC(=O)c2ccc(Br)o2)cc1OC | -2.55

Structure (SMILES) | hERG current change (%, negative = inhibition) at 10uM [%]
CC(C)CC(c1nnnn1CCc1ccccc1)N1CCN(C(=O)c2ccco2)CC1 (stereo not drawn) | -46.6
COC(=O)CCCC1=CC2=CC(=O)C(C)(OC(=O)c3cccs3)C(=O)C2=CN1C1CCCCC1 (stereo not drawn) | -7.95
O=S(=O)(Nc1ccc(-c2nc3cccnc3s2)cc1)c1cccs1 | 26.9
Cc1ccc(SCC(=O)OCC(=O)N2CCN(C(=O)c3ccco3)CC2)c(C)c1 | -41.6
Cc1cc(Br)ccc1NC(=O)c1ccco1 | 0.934
Cc1cccc(Cn2c(-c3ccc[nH]c3=O)nc3ccccc32)c1 | -14.9
O=C(CN1C(=O)C2CC=CCC2C1=O)NC1CCCc2ccccc21 (stereo not drawn) | 3.26
CCNC(=O)c1ccccc1NC(=O)c1cccc(S(=O)(=O)N2CCOCC2)c1 | -71.5
O=C(Nc1ccc2[nH]c(=O)[nH]c2c1)c1ccc(Br)o1 | -4.71
CC(C)NC(=O)c1onc(CSc2ccc(F)cc2)c1C(=O)O | 3.25
Cc1oc(-c2ccccc2Cl)nc1CSCC(=O)NC1CC1 | -16.1
Cn1c(SCC(=O)Nc2ccc(Br)cn2)nnc1C1CC1 | 10.3
CCOC(=O)Cc1c(C)nc2cc(-c3ccc(Cl)cc3)[nH]n2c1=O | 3.69
Cn1cc(CCC(=O)N2CCCC(C(=O)c3cccc4ccccc34)C2)cn1 (stereo not drawn) | 0.36
Cc1cc(C)nc(NC(=O)CSc2ccccn2)n1 | 1.08
CS(=O)(=O)N1CCN(c2ccc(NC(=S)NC(=O)c3ccccc3[N+](=O)[O-])cc2)CC1 | 19.7
CCOC(=O)C1=C(CSc2nc(-c3ccccc3)ccc2C#N)OC(N)=C(C#N)C1c1ccccc1 (stereo not drawn) | 8.45
COc1ccc(N(CC(=O)N2CCOCC2)S(=O)(=O)c2ccccc2)cc1Cl | -14.7
CC(=O)Nc1ccc(S(=O)(=O)N(C)CC(=O)NCCC2=CCCCC2)cc1 | 11.9
O=C(NCCc1ccccn1)c1ccc(OC2CCN(Cc3ccccn3)CC2)cc1 | 2.88
O=C(CCC(=O)c1ccc(Cl)s1)Nc1ncccc1O | -28.2
CC(SCc1ccccc1)C(=O)N/N=C/c1cccs1 (stereo not drawn) | 3.62
Cc1cc(Nc2cccc(Cl)c2)nc(-c2ccccc2O)n1 | 12.5
COc1ccc(C2c3c(c(C)c(C)oc3=O)Oc3c(C)c(C)oc(=O)c32)cc1 | 13.7
CCn1nnc2cc(C(=O)Nc3cc(Cl)ccc3C)ccc21 | -16.7
Cc1ccc2nc(CSc3nnc(-c4ccco4)n3-c3ccccc3)cc(=O)n2c1 | -21.1
CCN1CCN(C(=O)c2cc3cc([N+](=O)[O-])ccc3oc2=O)CC1 | -14.4

From paper PMC4336329 (PLoS ONE, 2015)
